The campaign covered roughly 310,000 compounds. About 2,200 (0.71%) showed an effect of 50% or more. Effects have a minus sign here. The list shows a part of the results.

In this assay the target is human ether-à-go-go-related gene (hERG) potassium channel (human, UniProt Q12809). As to the kind of experiment: primary screen, population patch clamp on CHO cells stably expressing hERG.
Chain of human ether-à-go-go-related gene (hERG) potassium channel (Q12809 whole entry, looked up): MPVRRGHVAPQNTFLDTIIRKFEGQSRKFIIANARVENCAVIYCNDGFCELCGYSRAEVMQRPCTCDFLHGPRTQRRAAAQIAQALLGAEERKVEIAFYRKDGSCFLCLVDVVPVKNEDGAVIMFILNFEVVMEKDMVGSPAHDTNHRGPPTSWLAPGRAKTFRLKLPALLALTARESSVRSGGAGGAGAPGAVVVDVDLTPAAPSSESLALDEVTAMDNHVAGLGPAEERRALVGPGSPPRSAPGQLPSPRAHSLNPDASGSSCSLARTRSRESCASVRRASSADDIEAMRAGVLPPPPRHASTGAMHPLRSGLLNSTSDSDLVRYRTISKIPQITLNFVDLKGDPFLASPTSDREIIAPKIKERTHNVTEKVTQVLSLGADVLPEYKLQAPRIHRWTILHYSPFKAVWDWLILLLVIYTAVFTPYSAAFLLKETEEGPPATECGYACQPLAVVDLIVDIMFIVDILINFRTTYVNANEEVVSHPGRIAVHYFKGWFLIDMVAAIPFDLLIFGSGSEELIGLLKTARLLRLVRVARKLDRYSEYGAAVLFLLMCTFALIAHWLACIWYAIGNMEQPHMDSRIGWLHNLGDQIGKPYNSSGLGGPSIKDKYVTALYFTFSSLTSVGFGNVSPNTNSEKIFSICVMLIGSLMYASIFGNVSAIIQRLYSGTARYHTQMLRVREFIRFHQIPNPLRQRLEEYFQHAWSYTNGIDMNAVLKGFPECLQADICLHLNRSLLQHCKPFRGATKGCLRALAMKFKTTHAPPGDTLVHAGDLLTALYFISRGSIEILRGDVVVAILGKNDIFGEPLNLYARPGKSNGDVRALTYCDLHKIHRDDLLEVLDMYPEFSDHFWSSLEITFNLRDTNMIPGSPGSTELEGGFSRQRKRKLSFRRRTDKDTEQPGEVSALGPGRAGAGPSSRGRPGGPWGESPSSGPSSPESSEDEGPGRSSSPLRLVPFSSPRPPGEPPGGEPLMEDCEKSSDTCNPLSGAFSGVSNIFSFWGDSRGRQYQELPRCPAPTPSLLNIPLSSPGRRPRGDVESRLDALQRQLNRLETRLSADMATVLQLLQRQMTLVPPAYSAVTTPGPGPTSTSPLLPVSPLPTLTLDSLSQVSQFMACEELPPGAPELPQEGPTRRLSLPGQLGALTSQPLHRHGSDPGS
As to `COC(=O)c1ccccc1NC(=O)CSc1nc(N)cc(N)n1`, the “hERG current change (%, negative = inhibition) at 1uM” value worked out at 3.36%.
On to `COc1ccc(N(CCC#N)C(=O)/C(C#N)=C\c2cccs2)cc1`, for which the “hERG current change (%, negative = inhibition) at 1uM” value was 4.19%.
Take `N#Cc1ccccc1NC(=S)NC(=O)c1cccs1`: the “hERG current change (%, negative = inhibition) at 1uM” value amounted to 19.7%.
Consider `Cc1ccc(C)c(C(=O)NC(C)CCc2ccccc2)c1` (centres unmarked), for which the “hERG current change (%, negative = inhibition) at 1uM” value amounted to 10.5%.
Then `O=S1(=O)CC2N=C(N(Cc3c(F)cccc3Cl)c3ccccc3F)SC2C1` (centres unmarked), with 12.6%; and `Cc1cccc(C)c1NC(=O)COC(=O)c1c2c(nc3ccccc13)/C(=C\c1ccc3c(c1)OCO3)CCC2`, with 2.44%; and `Brc1ccc(Oc2ncc(CN3CCOCC3)s2)cc1`, with -2.83%.
With `O=C(OCC(=O)N1CCCCCC1)c1ccccc1Br` the figure was 0.127%; with `Cc1cc(C)c2c(N)c(C(=O)Nc3c(C)n(C)n(-c4ccccc4)c3=O)sc2n1`, 22.9%; with `Oc1ccc(Nc2nnc(-c3ccc(O)cc3)c3ccccc23)cc1`, 5.28%.
`N/C(=N\OS(=O)(=O)c1ccccc1)c1ccncc1`: the “hERG current change (%, negative = inhibition) at 1uM” value is recorded as 10.5%.
With `CN(C(=O)c1ccc(NC(=O)Cc2ccc(NC(=O)C3CCCN(C(=O)C4CCCCC4)C3)cc2)cc1)C1CC1` (centres unmarked) the figure was 12.6%; with `COc1cccc(CNC(=O)c2cc(S(=O)(=O)N3CCOCC3)ccc2N2CCCC2)c1`, 6.17%.
As to `O=C(CCNC(=O)c1ccc(Br)cc1)NCC(c1ccco1)N1CCCCC1` (centres unmarked), the “hERG current change (%, negative = inhibition) at 1uM” value amounted to 3.27%.
In the case of `O=C(CSc1ccc(-c2nc3ccccc3[nH]2)cn1)Nc1ccc(S(=O)(=O)N2CCCC2)cc1`, the “hERG current change (%, negative = inhibition) at 1uM” value is listed as 5.9%.
Then `COc1cccc(N2CC(C(=O)Nc3c(C)cccc3C)CC2=O)c1` (centres unmarked), with 3.99%; and `CC1(C)C(=O)OC(c2ccccc2)C(C)(C)C1=O` (centres unmarked), with -6.15%; and `CCCCC#Cc1cncc(C(=O)NN)c1`, with 9.47%.
With `COc1ccc(OCC(=O)Nc2ccccc2C(=O)Nc2ccc(C(=O)O)cc2)cc1` the figure was 6.89%; with `C=CCn1c(SCC(=O)Nc2nc3ccccc3s2)nnc1-c1ccccc1O`, 6.55%.
In the case of `CCOC(=O)c1c(C)[nH]c(C(=O)COC(=O)CSCC(=O)N(CC)CC)c1C`, the “hERG current change (%, negative = inhibition) at 1uM” value is 7.65%.
Regarding `Cn1nnnc1SCC(=O)N1CCN(c2cccc(Cl)c2)CC1`, the “hERG current change (%, negative = inhibition) at 1uM” value was -3.97%.
Consider `CC(C)Oc1ccc(C(=O)Nc2ccc([N+](=O)[O-])cc2)cc1`, for which the “hERG current change (%, negative = inhibition) at 1uM” value worked out at 6.66%.
With `CC(C)NC(=O)C1CCN(C(=O)c2cc3sccc3n2Cc2ccc(F)cc2)CC1` the figure was 3.39%; with `CCc1nc(SCC(=O)NCCc2ccccc2)c2oc3ccccc3c2n1`, 0.134%; with `CC(C)c1ccc2[nH]c(O)c(N=NC(=S)NCCc3ccccc3)c2c1`, 8.3%.
For the molecule `Cc1ccc(NCCC(=O)c2cccc([N+](=O)[O-])c2)c(C)c1`, the “hERG current change (%, negative = inhibition) at 1uM” value came to 12.4%.
Then `Cc1ccc(Nc2cc(C(=O)NCCCN3CCOCC3)c3ccccc3n2)cc1C`, with 10%.
With `COCC(C)N1CCC(Oc2ccc(C(=O)NCc3ccccn3)cc2)CC1` (centres unmarked) the figure was 22.3%; with `NC(=O)CC(NC(=O)Cc1ccc(Br)cc1)c1ccc(NCCN2CCOCC2)c([N+](=O)[O-])c1` (centres unmarked), 17.1%; with `COc1ccccc1Nc1nc(-c2ccc([N+](=O)[O-])cc2)nc2ccccc12`, 6.46%.
With `COc1ccc([N+](=O)[O-])c(OC)c1C(=O)NC(=O)Nc1nc(C)cc(C)n1` the figure was 9.06%; with `O=C(/C=C/c1ccc(F)cc1)NCCCn1ccnc1`, 5.67%.
For the molecule `CCOC(=O)c1ccc(NS(=O)(=O)c2cnc[nH]2)cc1`, the “hERG current change (%, negative = inhibition) at 1uM” value was found to be 11.3%.
Then `COc1ccc(-c2c(C)nn(-c3ccccc3)c2N)cc1OC`, with 3.94%; and `CCCn1nc(C(=O)NC2CCCc3ccccc32)c2ccccc2c1=O` (centres unmarked), with 6.25%.
With `FC(F)(F)COc1nc(N2CCOCC2)nc(N(c2ccccc2)c2ccccc2)n1` the figure was -4.99%; with `CN1CCN(C(CNC(=O)C(=O)Nc2ccc3c(c2)OCO3)c2ccc(F)cc2)CC1` (centres unmarked), -6.21%.
With `Cc1ccc(S(=O)(=O)c2cnc(-c3ccccc3)nc2N2CCN(C)CC2)cc1` the figure was 26.6%; with `CC(C)(C)CN1C(=O)C(=O)NC[C@H]1Cc1cccc2ccccc12`, 14.6%.
`COc1cc(C(=S)N2CCCC2)cc(OC)c1OC`: the “hERG current change (%, negative = inhibition) at 1uM” value is 13.4%.
Take `N=c1n(-c2ccccc2)c(O)cc(=O)n1-c1ccccc1`: the “hERG current change (%, negative = inhibition) at 1uM” value is 2.48%.
Regarding `O=C(Nc1ccccc1C(=O)NCc1ccco1)c1ccccc1`, the “hERG current change (%, negative = inhibition) at 1uM” value turned out to be 6.85%.
With `Cc1ccc(NC(=O)COC(=O)C2CC2(Cl)Cl)cc1C` (centres unmarked) the figure was 14.2%.
As to `COc1cc(/C=N/Nc2cc(C)nc(NS(=O)(=O)c3ccccc3)n2)ccc1O`, the “hERG current change (%, negative = inhibition) at 1uM” value is 4.68%.
For `Cc1ccc(C(=O)CCC(=O)OCC(=O)NNC(=O)c2ccccc2Cl)cc1`, the “hERG current change (%, negative = inhibition) at 1uM” value is reported as 9.44%.
With `O=C(Nc1nccs1)c1cn(-c2ccccc2)nc1-c1ccncc1` the figure was 7.59%; with `O=C1CCCN1c1ccc(N2CCCC2=O)cc1`, 15.2%.
`O=C(Nc1c2c(nn1-c1cccc(Cl)c1)CS(=O)(=O)C2)c1ccco1`: the “hERG current change (%, negative = inhibition) at 1uM” value was found to be 3.63%.
Then `O=C(Nc1cccc(C(F)(F)F)c1)C1CCCO1` (centres unmarked), with 15.6%; and `CN(C)C(CNC(=O)c1cccc(S(=O)(=O)N(C)C)c1)c1ccccc1` (centres unmarked), with -0.964%; and `O=C(NS(=O)(=O)c1ccccc1)c1ccccc1F`, with -0.685%.
As for `O=C1CCCCN1CCC(=O)N1CCCC(Nc2ccccc2)C1` (centres unmarked), the “hERG current change (%, negative = inhibition) at 1uM” value is 13.9%.
Turning to `CC12CN(C(=O)c3ccc(Cl)cc3)C3(C#N)CC1CCC23C` (centres unmarked), the “hERG current change (%, negative = inhibition) at 1uM” value is -2.14%.
Then `O=C(Nc1ccc(Cn2cccn2)cc1)c1ccc(COc2cccc(Br)c2)cc1`, with 17.4%.
For the molecule `O=C(c1ccccc1F)N1CCN(c2ccc([N+](=O)[O-])c3ncccc23)CC1`, the “hERG current change (%, negative = inhibition) at 1uM” value is on record as -38.7%.
Then `CC(C)CC(=O)NC(=S)Nc1nc(-c2cccc3ccccc23)cs1`, with 7.63%; and `O[C@@H]([C@H](O)[C@H](O)CBr)[C@H](O)CBr`, with 15%; and `Cc1oc2cc(O)ccc2c(=O)c1Oc1ccccc1`, with -3.8%.
With `CSc1ccccc1NC(=O)c1ccccc1` the figure was -0.631%; with `CCCOc1ccc(C(C)=O)cc1CSc1nc(O)cc(=O)[nH]1`, 9.83%; with `O=c1[nH]c2ccc(Cl)cc2c(=O)n1Cc1ccco1`, 17.4%.
Then `CC(C)(/C=N/O)/[N+]([O-])=C/c1ccccc1C(F)(F)F`, with 10.8%; and `Cc1ccc(S(=O)(=O)N2CCOCC2)cc1C(=O)Nc1ccccc1N1CCOCC1`, with 13.7%.
On to `CN(C)CCCN1C(=O)c2oc3ccc(F)cc3c(=O)c2C1c1cccnc1` (centres unmarked), for which the “hERG current change (%, negative = inhibition) at 1uM” value was determined as 8.54%.
Then `CC(C)N1C(=O)S/C(=C/c2cccnc2)C1=O`, with 12.1%.
In the case of `O=C(COc1ccccc1)Nc1ccc(Cl)cc1Cl`, the “hERG current change (%, negative = inhibition) at 1uM” value is recorded as 13.3%.
In the case of `Cc1nn(C(C)C(=O)Nc2ccc(Cl)cn2)c(C)c1[N+](=O)[O-]` (centres unmarked), the “hERG current change (%, negative = inhibition) at 1uM” value amounted to 2.84%.
For the molecule `Cc1ccc(NC(=O)C2CC(=O)NC(N3CCc4ccccc43)=N2)cc1` (centres unmarked), the “hERG current change (%, negative = inhibition) at 1uM” value was 10.6%.
Then `CCC(CC)C(=O)c1c[nH]c(C(=O)NCc2ccncc2)c1`, with 10%; and `Cc1cc(NN)nc2ccc(Cl)cc12`, with 5.75%.
With `NC(=S)N/N=C\c1c2ccccc2cc2ccccc12` the figure was 9.15%; with `CN1C(=O)/C(=C/c2cc(C(C)(C)C)c(O)c(C(C)(C)C)c2)NC1=S`, 8.32%.
Regarding `Cc1ccc(NC(=O)CSc2nnc(-c3ccco3)c(-c3ccco3)n2)cc1`, the “hERG current change (%, negative = inhibition) at 1uM” value was -8.37%.
With `Cl.O=C(c1cc(S(=O)(=O)Nc2ccccc2F)c(Cl)cc1Cl)N1CCN(CCO)CC1` the figure was 9.93%; with `Cc1nc2ccccn2c1C(=O)NCc1ccc2c(c1)OCO2`, 4.6%.
Then `CCCCNc1c(N)n(CC(C)C)c(=O)[nH]c1=O`, with -3.75%; and `O=C(N/N=C/c1ccncc1)C1C2CCCCCCC21` (centres unmarked), with 9.69%; and `O=C1c2ccccc2C(Nc2ccc(S(=O)(=O)N3CCCCC3)cc2)N1c1ccccn1` (centres unmarked), with 5.21%.
With `COc1ccccc1-c1ccc(SCC(=O)NCCc2ccccc2)nn1` the figure was -0.013%.
With `CCCn1c(=S)[nH]c2cc(C(=O)N(CCO)Cc3ccccc3)ccc2c1=O`, the “hERG current change (%, negative = inhibition) at 1uM” value is recorded as 15.5%.
As for `O=C(Cn1cc(C(F)(F)F)cc(Cl)c1=O)Nc1cccc(S(=O)(=O)N2CCCCC2)c1`, the “hERG current change (%, negative = inhibition) at 1uM” value came to 15.8%.
With `COc1ccccc1CNS(=O)(=O)c1c(C)noc1C` the figure was 13.4%.
With `Cc1cc(C)c2c(CN3CCOCC3)cc(=O)oc2c1` the figure was 6.07%; with `C/C(=N\NC(=S)NCc1ccccc1)c1ccc(Cl)cc1`, 2.24%.
For the molecule `Nc1ncnc(Nc2cccc(F)c2)n1`, the “hERG current change (%, negative = inhibition) at 1uM” value came to 6.16%.
With `COCCCN(C(=O)Cc1csc(-c2cccc(Cl)c2)n1)c1c(N)n(Cc2ccccc2)c(=O)[nH]c1=O` the figure was 8.1%.
Then `Cc1ccccc1N(C(=O)c1csnn1)C(C(=O)NC1CCCC1)c1ccncc1` (centres unmarked), with 10.7%; and `CCc1nnc(NC(=O)[C@@H](NC(=O)c2cc(OC)cc(OC)c2)C(C)C)s1`, with 17%.
